From PubChem BioAssay AID596 (National Center for Advancing Translational Sciences (NCATS), 2007)
Where “and” joins values, the source holds several entries; their conditions need not be identical. Equal entries are not always repeated. The campaign covered roughly 71,000 compounds. About 1,400 (2%) were called active. Inconclusive means that the source gave no clear call. Such entries were picked first, then a sample of the others. The call rests on the fitted dose curve; in most records, active means well fitted curve in the direction sought with a large enough effect; inconclusive means small, poorly fitted or top-dose-only effect; inactive means no such curve, though single readings can be large or run the other way. A potency beside an inconclusive call is a rough fit, not a confirmed value. Some structures have more than one record in an assay (separate samples or runs), and their calls can disagree. Starred links: 1 amine or outer side, 2 acyl side, 3 side chain; linkers in the order of their positions; H or OH if unused. Positions of bridges follow the written chain, without caps; N, C: chain ends. Non-standard residues stand in square brackets, D forms with d. Residues, ends and D or L forms follow the SMILES beside them. Chains are numbered I, II in the order given. Actinocin(9to1) = Cc1c2oc3c(C)ccc(C(=O)[*:1])c3nc-2c(C(=O)[*:2])c(N)c1=O; aThr = C[C@H](O)[C@H](N)C(=O)O; NMeV = CN[C@H](C(=O)O)C(C)C; Sar = CNCC(=O)O

The compounds below were run against Microtubule-associated protein tau (Homo sapiens) (UniProt P10636) (assay: qHTS Assay for Tau Filament Binding). Conditions: recombinant tau filaments, thioflavin S fluorescence, 15 h, filaments grown with octadecylsulfate alongside compound; series mostly up to 57.1 µM.
Chain of UniProt P10636 (P10636 whole entry, looked up): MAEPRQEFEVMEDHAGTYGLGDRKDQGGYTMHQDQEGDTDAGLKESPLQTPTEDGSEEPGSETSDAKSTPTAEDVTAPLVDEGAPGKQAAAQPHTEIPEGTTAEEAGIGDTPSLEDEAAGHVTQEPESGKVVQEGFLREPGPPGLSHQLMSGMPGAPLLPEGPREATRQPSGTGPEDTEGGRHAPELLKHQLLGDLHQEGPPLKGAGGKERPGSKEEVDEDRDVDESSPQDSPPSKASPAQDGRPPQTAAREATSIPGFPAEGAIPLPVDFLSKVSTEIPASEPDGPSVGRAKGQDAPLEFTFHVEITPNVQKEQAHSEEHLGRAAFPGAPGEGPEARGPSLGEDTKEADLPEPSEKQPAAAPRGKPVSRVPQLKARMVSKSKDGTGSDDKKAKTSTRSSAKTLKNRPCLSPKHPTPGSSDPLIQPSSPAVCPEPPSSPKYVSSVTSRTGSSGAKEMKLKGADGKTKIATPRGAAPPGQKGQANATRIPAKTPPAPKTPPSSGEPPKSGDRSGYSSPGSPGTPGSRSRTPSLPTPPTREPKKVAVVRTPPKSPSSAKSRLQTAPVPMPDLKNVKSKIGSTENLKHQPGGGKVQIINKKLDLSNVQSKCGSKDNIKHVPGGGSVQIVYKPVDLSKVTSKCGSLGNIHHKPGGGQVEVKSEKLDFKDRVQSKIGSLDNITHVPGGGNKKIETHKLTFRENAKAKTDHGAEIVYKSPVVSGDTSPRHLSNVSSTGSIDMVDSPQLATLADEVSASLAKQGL
Outline: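 Read-out: ThS fluorescence, 450 nm excitation/510 nm emission; lower signal marks blocked filament formation or displaced dye. Tau at 1 uM with 30 uM ODS, 10 uM ThS, 5 mM DTT, 100 mM NaCl, 10 mM HEPES pH 7.4; 15 h, 37 C.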
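Further: actives lower thioflavin S fluorescence by blocking filaments or displacing dye.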
On the % scale 0 is the no-effect control and ±100 the full control effect; potency means the concentration at half of the fitted maximal effect.

SMILES | Potency | activity change, negative = inhibition
CCn1ccnc1C[C@@H]1COc2ccccc2O1 | inconclusive: 39.8 µM [decreasing] | 
Cc1ccc(-n2nc(C)c3c2OC(N)=C(C#N)C3c2ccc(F)cc2)cc1 (configuration not stated) | inconclusive: 31.6 µM [decreasing] | 
O=C(Nc1ccc(-c2cn3ccsc3n2)cc1)c1ccc(F)c(S(=O)(=O)N2CCOCC2)c1 | inactive | 
CCNc1ncc2nc(-c3cn(C)c4ccccc34)c(=O)n(Cc3cccc(OC)c3)c2n1 | inactive | 
CCCCn1c(SCC(N)=O)nnc1-c1ccco1 | inactive | 
CCN(CC)c1ccc(-n2cc3c(=O)n(C)c(=O)n(C)c3c2)cc1 | inconclusive: 39.8 µM [decreasing] | 
O=C(OCC#CCSc1nnc(-c2ccc(Br)cc2)o1)c1ccco1 | inactive | 
CC(C)Oc1c(Cl)cc(CNC(C)(C)CO)cc1Cl | inconclusive: 39.8 µM [decreasing] | 
CCCN(CCC)C(=O)CSc1nc2n[nH]c(C)c2c(=N)n1-c1ccc(OC)cc1 | inactive | 
CCc1ccc(C2CC(c3ccc(F)cc3)Nc3nc(N)nn32)cc1 (configuration not stated) | inconclusive: 25.1 µM [decreasing] | 
Nc1c(N2CCN(c3ccccc3)CC2)c2ccccc2oc1=O | inconclusive: 3.16 µM [decreasing] | 
NCC(O)COCCC12CC3CC(CC(C3)C1)C2 (configuration not stated) | inconclusive: 39.8 µM [decreasing] | 
Cc1cccn2c(=O)c3cc(C(=O)Nc4ccc(N(C)C)cc4)n(C)c3nc12 | inconclusive: 1.26 µM [decreasing] | 
O=C(O)CCC(=O)Nc1ccc(-c2nnc(-c3ccco3)o2)cc1 | inconclusive: 31.6 µM [decreasing] | 
COc1ccc(Oc2ncc3nc(-c4cc(F)cc(F)c4)c(=O)n(C[C@H]4CCCO4)c3n2)cc1 | inconclusive: 25.1 µM [decreasing] | 
COCCn1c(=O)c(-c2cccc(C#N)c2)nc2cnc(Oc3ccccc3)nc21 | inconclusive: 39.8 µM [decreasing] | 
Cc1noc(C)c1CSc1nc2ccccc2c(=O)n1-c1ccccc1 | inactive | 
O=C1O[C@@H]([C@H](O)[C@H](O)[C@H](O)CO)[C@@H](O)[C@@H]1O |  | inactive: -10.5% [at 11.4 µM]
CCOc1cc(S(=O)(=O)NCc2ccc3c(c2)OCO3)c(C)cc1C | active: 15.8 µM | 
C=Cc1c(C)c2cc3[nH]c(cc4nc(cc5nc(cc1[nH]2)C(C)=C5CCC(=O)O)C(CCC(=O)O)=C4C)c(C)c3C=C | active: 5.01 µM | 
Cc1ccc(-c2nnc3sc(-c4ccncc4)nn23)cc1 | active: 25.1 µM | 
c1coc(-c2nc3nc4ccccc4n3nc2-c2ccco2)c1 | active: 3.16 µM | 
CC(=O)C1=C(O)C=C(c2ccco2)CC1c1ccco1 (configuration not stated) | active: 20 µM | 
O=C(NC1CCCC1)c1cnn2c(C(F)(F)F)cc(-c3ccco3)nc12 | inconclusive: 31.6 µM [decreasing] | 
Cc1ccc(O)c(N=Nc2ccccc2)n1 | inconclusive: 39.8 µM [decreasing] | 
COc1cc2c(cc1O)CCC1C2CC[C@@]2(C)C1CC[C@@H]2O (some centres not stated) | inconclusive: 39.8 µM [decreasing] | 

SMILES | Potency | activity change, negative = inhibition
CCOCCCNCC(=O)NC1(C)C2CCC(C2)C1(C)C (configuration not stated) | inconclusive: 12.6 µM [decreasing] | 
CC(C)CC(C(=O)Nc1oc(-c2ccco2)c(-c2ccco2)c1C#N)N1C(=O)c2ccccc2C1=O (configuration not stated) | inconclusive: 12.6 µM [decreasing] | 
COc1cc2cc(Oc3ccc4ccc(=O)oc4c3)c(=O)oc2cc1O | inconclusive: 39.8 µM [decreasing] | 
CCOC(=O)C1=C(N)n2c(s/c(=C/c3ccco3)c2=O)=C(C(=O)OC)C1c1ccco1 (configuration not stated) | active: 3.16 µM | 
Cc1ccc(Nc2nc(C3CC3)cs2)cc1 | inconclusive: 39.8 µM [decreasing] | 
Cc1cc(-c2nc3ccccc3o2)c2ccccc2n1 | inactive | 
O=C(O)CCc1ccc(-c2ccc(Br)cc2)n1Cc1ccco1 | inconclusive: 25.1 µM [decreasing] | 
O=C(Cc1ccccc1)Nc1ccc2oc(-c3ccncc3)nc2c1 | inconclusive: 25.1 µM [decreasing] | 
c1cncc(CNc2nc(-c3ccoc3)nc3ccccc23)c1 | inconclusive: 10 µM [decreasing] | 
Cc1cc(C(C)(C)C)c(O)c(C)c1CC1=NCCN1 | inconclusive: 39.8 µM [decreasing] | 
CC(CO)(CO)N=Cc1cc(I)cc(I)c1O | inconclusive: 3.16 µM [decreasing] | 
CN(C)CCCN1c2ccccc2Sc2ccccc21 | active: 20 µM and active: 10 µM | 
CN1C(=S)SC(/[N+]([O-])=C\c2ccco2)C1(C)C (configuration not stated) | inactive | 
O=C(Nc1ccccc1)c1cc([N+](=O)[O-])ccc1Cl | inconclusive: 39.8 µM [decreasing] | 
CN=C(NC#N)Nc1ccc(C2=NNC(=O)C[C@@H]2C)cc1 | active: 39.8 µM | 
Cc1cccc(NC(=O)CC2SC(=NC3CCCCC3)NC2=O)c1 (configuration not stated) | inactive | 
CCOC(=O)c1c(C)n(CC(O)c2ccccc2)c2ccc(O)cc12 (configuration not stated) | inactive | 
COc1ccc(OCCCC(=O)N2CCCc3ccccc32)cc1 | inactive | 
C=CCn1c(SCC(=O)c2ccc(CNC(C)=O)o2)nc2scc(C3CC3)c2c1=O | inactive | 
Cc1nn(C(C)(C)C)c(OC(=O)c2cccs2)c1S(=O)(=O)c1ccccc1 | inconclusive: 20 µM [decreasing] | 
O=C(O)C1Nc2c(O)cccc2C2C=CCC12 (configuration not stated) | active: 12.6 µM | 
CCC(=O)NCCC(c1ccco1)c1ccccc1OC (configuration not stated) | inactive | 
CN=C1N[C@H](c2ccccc2)N(c2ccccc2)S1 | inconclusive: 39.8 µM [decreasing] | 
CN(C)CCSCCO |  | inactive: 4.5% [at 11.4 µM]
O=C(c1ccccc1)c1nc[nH]c1C(=O)Nc1ccccc1 | inconclusive: 25.1 µM [decreasing] | 
Cc1c2oc3c(C)ccc(C(=O)N[C@@H]4C(=O)N[C@@H](C(C)C)C(=O)N5CCC[C@@H]5C(=O)N(C)CC(=O)N(C)[C@@H](C(C)C)C(=O)O[C@H]4C)c3nc-2c(C(=O)N[C@@H]2C(=O)N[C@@H](C(C)C)C(=O)N3CCC[C@@H]3C(=O)N(C)CC(=O)N(C)[C@@H](C(C)C)C(=O)O[C@H]2C)c(N)c1=O (I: [aThr]V[dP][Sar][NMeV] / II: [aThr]V[dP][Sar][NMeV]; ester I:1-I:C, II:1-II:C; linker I:N-II:N via Actinocin(9to1)) | inconclusive: 39.8 µM [decreasing] | 
